What was measured:
Colo205 = assay: Tumor cell viability, CellTiter-Glo; type: cell-based, human; details: 24 hours
Method: (§1) Tumor cells were seeded at 10,000 cells/well in 96-well plates in the recommended media containing 10% FBS and treated with a TRAIL receptor agonist protein made up of two polypeptides having the amino acid sequence set forth in SEQ ID NO: 19 for 24 hours at 37° C. in a humidified, 5% CO2 atmosphere. Cell viability was subsequently assessed using CellTiter-Glo® reagent as described by the manufacturer's instructions (Promega; Madison, Wis.). IC50 values were determined by non-linear regression analysis of the concentration response data normalized to non-treated control cells.

EOL-1 = assay: Tumor cell viability, CellTiter-Glo; type: cell-based, human; details: EOL-1 (AML), 24 hours
Method: as §1

HCC1569 = assay: Tumor cell viability, CellTiter-Glo; type: cell-based, human; details: HCC1569 (BrCa), 24 hours
Method: as §1

HCT 116-GFP = assay: Tumor cell viability, CellTiter-Glo; type: cell-based, human; details: HCT 116-GFP (CRC), 24 hours
Method: as §1

MIA PaCa-2 = assay: Tumor cell viability, CellTiter-Glo; type: cell-based, human; details: MIA PaCa-2 (Pancreatic), 24 hours
Method: as §1

MOLM-13 = assay: Tumor cell viability, CellTiter-Glo; type: cell-based, human; details: MOLM-13 (AML), 24 hours
Method: as §1

NCI-H1373 = assay: Tumor cell viability, CellTiter-Glo; type: cell-based, human; details: NCI-H1373 (NSCLC), 24 hours
Method: as §1

NCI-H838 = assay: Tumor cell viability, CellTiter-Glo; type: cell-based, human; details: NCI-H838 (NSCLC), 24 hours
Method: as §1

NUDHL-1 = assay: Tumor cell viability, CellTiter-Glo; type: cell-based, human; details: NUDHL-1 (NHL), 24 hours
Method: as §1

OCI-AML3 = assay: Tumor cell viability, CellTiter-Glo; type: cell-based, human; details: OCI-AML3 (AML), 24 hours
Method: as §1

OCI-Ly1 = assay: Tumor cell viability, CellTiter-Glo; type: cell-based, human; details: OCI-Ly1 (NHL), 24 hours
Method: as §1

SKM-1 = assay: Tumor cell viability, CellTiter-Glo; type: cell-based, human; details: 24 hours
Method: as §1

SW48 = assay: Tumor cell viability, CellTiter-Glo; type: cell-based, human; details: SW48 (CRC), 24 hours
Method: as §1

UKE-1 = assay: Tumor cell viability, CellTiter-Glo; type: cell-based, human; details: UKE-1 (AML), 24 hours
Method: as §1

WSU-DLCL2 = assay: Tumor cell viability, CellTiter-Glo; type: cell-based, human; details: WSU-DLCL2 (NHL), 24 hours
Method: as §1

[1] = tested on: subcutaneous SKM-1 (acute myeloid leukemia) xenograft tumors; assay: SKM-1 acute myeloid leukemia xenograft model; type: in vivo; details: SKM-1 xenograft, SCID female mice; 0.3, 1, or 3 mkd dosed IV, QDx5 or IP, Q2Dx5 as indicated
Method: The effect of a TRAIL receptor agonist protein made up of two polypeptides having the amino acid sequence set forth in SEQ ID NO:19 on tumor growth was evaluated in subcutaneous Colo205 (colorectal), SKM-1 (acute myeloid leukemia), and H460LM (non-small cell lung) xenograft tumors implanted in SCID female mice (Charles Rivers Laboratories; Wilmington, Mass.). Briefly, human cancer cells were inoculated subcutaneously into the right hind flank of female SCID mice on study day 0. Administration of TRAIL receptor agonist protein of SEQ ID NO:19 (0.3, 1, or 3 mkd dosed IV, QDx5 or IP, Q2Dx5 as indicated) was initiated at the time of size match. Tumor volume was measured for the duration of the experiment until the mean tumor volume in each group reached an endpoint of >2000 mm^3 for Colo205 and SKM-1 or >2500 mm^3 for H460LM.

CTG-0069 (colorectal) = assay: Patient-derived xenograft model CTG-0069; type: in vivo; details: CTG-0069 (colorectal) PDX, NSG female mice; 3 mkd dosed IP, Q2Dx5
Method: (§2) The effect of a TRAIL receptor agonist protein made up of two polypeptides having the amino acid sequence set forth in SEQ ID NO:19 on tumor growth was also evaluated in patient-derived xenograft models CTG-0069 (colorectal), CTG-0167 (NSCLC), CTG-0293 (pancreatic), CTG-0714 (sarcoma), CTG-0136 (esophageal), CTG-485 (gastric), and CTG-0785 (Ewing's sarcoma) implanted in NSG female mice (Champions Oncology; Hackensack, N.J.). Briefly, tumor fragments were propagated subcutaneously into the right hind flank of female NSG mice on study day 0. Administration of a TRAIL receptor agonist protein made up of two polypeptides having the amino acid sequence set forth in SEQ ID NO: 19 (3 mkd dosed IP, Q2Dx5) was initiated at the time of size match. Tumor volume was measured for the duration of the experiment until the mean tumor volume in each group reached an endpoint of >2000 mm^3 or 60 days.

CTG-0167 (NSCLC) = assay: Patient-derived xenograft model CTG-0167; type: in vivo; details: CTG-0167 (NSCLC) PDX, NSG female mice; 3 mkd dosed IP, Q2Dx5
Method: as §2

CTG-0293 (pancreatic) = assay: Patient-derived xenograft model CTG-0293; type: in vivo; details: CTG-0293 (pancreatic) PDX, NSG female mice; 3 mkd dosed IP, Q2Dx5
Method: as §2

CTG-0714 (sarcoma) = assay: Patient-derived xenograft model CTG-0714; type: in vivo; details: CTG-0714 (sarcoma) PDX, NSG female mice; 3 mkd dosed IP, Q2Dx5
Method: as §2

CTG-0136 (esophageal) = assay: Patient-derived xenograft model CTG-0136; type: in vivo; details: CTG-0136 (esophageal) PDX, NSG female mice; 3 mkd dosed IP, Q2Dx5
Method: as §2

CTG-485 (gastric) = assay: Patient-derived xenograft model CTG-485; type: in vivo; details: CTG-485 (gastric) PDX, NSG female mice; 3 mkd dosed IP, Q2Dx5
Method: as §2

[2] = tested on: CTG-0785 (Ewing's sarcoma); assay: Patient-derived xenograft model CTG-0785; type: in vivo; details: CTG-0785 (Ewing's sarcoma) PDX, NSG female mice; 3 mkd dosed IP, Q2Dx5
Method: as §2

B1: SEQ ID NO: 19: made up of two polypeptides of SEQ ID NO: 19; three hinge cysteines, N297S aglycosylated CH2, glycosites at positions 168 and 337 (protein)
chain: QRVAAHITGTRGRSNTLSSPNSKNEKALGRKINSWESSRSGHSFLSNLHLRNGELVIHEKGFYYIYSQTYFRFQEEIKENTKNDKQMVQYIYKYTSYPDPILLMKSARNSCWSKDAEYGLYSIYQGGIFELKENDRIFVSVTNEHLIDMDHEASFFGAFLVGGSGSGNGSRVAAHITGTRGRSNTLSSPNSKNEKALGRKINSWESSRSGHSFLSNLHLRNGELVIHEKGFYYIYSQTYFRFQEEIKENTKNDKQMVQYIYKYTSYPDPILLMKSARNSCWSKDAEYGLYSIYQGGIFELKENDRIFVSVTNEHLIDMDHEASFFGAFLVGGSGSGNGSRVAAHITGTRGRSNTLSSPNSKNEKALGRKINSWESSRSGHSFLSNLHLRNGELVIHEKGFYYIYSQTYFRFQEEIKENTKNDKQMVQYIYKYTSYPDPILLMKSARNSCWSKDAEYGLYSIYQGGIFELKENDRIFVSVTNEHLIDMDHEASFFGAFLVGGPGSSSSSSSG[human IgG1 Fc with N297S (EU numbers) not written out]
modifications: homodimer
IC50 (Colo205; Colo205 (CRC)): 0.0013 µg/mL | cell death / cell viability (FIG. 19) (Colo205; Colo205 cells, increasing concentrations): induces cell death | IC50 (EOL-1): 0.01831 µg/mL | IC50 (HCC1569): 0.219 µg/mL | IC50 (HCT 116-GFP): 0.337 µg/mL | IC50 (MIA PaCa-2): 0.158 µg/mL | IC50 (MOLM-13): 0.7221 µg/mL | IC50 (NCI-H1373): 0.12515 µg/mL | IC50 (NCI-H838): 0.04448 µg/mL | IC50 (NUDHL-1): 0.0065 µg/mL | IC50 (OCI-AML3): 1 µg/mL | IC50 (OCI-Ly1): 0.41695 µg/mL | IC50 (SKM-1; SKM-1 (AML)): 0.00095 µg/mL | cell death / cell viability (FIG. 19) (SKM-1; SKM-1 cells, increasing concentrations): induces cell death | IC50 (SW48): 0.0061 µg/mL | IC50 (UKE-1): 0.20535 µg/mL | IC50 (WSU-DLCL2): 1 µg/mL | effect on tumor growth [1]: significant tumor growth inhibition | effect on tumor growth (CTG-0069 (colorectal)): significant tumor growth inhibition | effect on tumor growth (CTG-0167 (NSCLC)): significant tumor growth inhibition | effect on tumor growth (CTG-0293 (pancreatic)): significant tumor growth inhibition | effect on tumor growth (CTG-0714 (sarcoma)): significant tumor growth inhibition | effect on tumor growth (CTG-0136 (esophageal)): significant tumor growth inhibition | effect on tumor growth (CTG-485 (gastric)): significant tumor growth inhibition | effect on tumor growth [2]: significant tumor growth inhibition
